From article PMC10726135
This is one part of the list. At the low end of the ranking the order means little. Measured with an extract: partners may take part in the binding.

What follows are sequences tested against T1, HNF4alpha2 (COS-7 nuclear extract) (UniProt P41235) (assay: protein-binding microarray). Conditions: COS-7 nuclear extract on double-stranded Agilent 4x180k PBM; binding buffer, salt, pH and temperature not given; high values mean tight binding; double strand, one strand shown; sequences stand for … in …GCCTAGGGAGATTAGAGTATCGGTCGA.
T1 sequence: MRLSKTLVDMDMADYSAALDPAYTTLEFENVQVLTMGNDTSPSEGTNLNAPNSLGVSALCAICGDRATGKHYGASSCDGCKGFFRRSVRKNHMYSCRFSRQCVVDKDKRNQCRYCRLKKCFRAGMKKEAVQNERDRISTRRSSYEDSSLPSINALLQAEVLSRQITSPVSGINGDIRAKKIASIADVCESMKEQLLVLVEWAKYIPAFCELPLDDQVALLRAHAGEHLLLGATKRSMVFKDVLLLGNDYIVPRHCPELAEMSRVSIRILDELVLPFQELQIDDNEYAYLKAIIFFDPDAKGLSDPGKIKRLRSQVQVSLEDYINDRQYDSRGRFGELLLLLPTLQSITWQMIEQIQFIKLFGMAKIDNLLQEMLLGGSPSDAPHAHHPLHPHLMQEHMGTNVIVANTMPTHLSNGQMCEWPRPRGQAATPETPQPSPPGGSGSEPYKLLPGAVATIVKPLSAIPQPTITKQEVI

Sequence	binding signal (log2 normalized intensity)
GGTGTGAGAGGGCAAAGGTCACAGCATTAG	6.76
GACACCGGGTGAAGGTTAAATAGCTCATTA	0.567
TTTTTCCCCTGAAATATCATTATCTTGATC	1.53
CTCATTGGCCAGTATCCGCCTTCACTCCCC	1.85
AGAGGAGGCCCACACCCCTGGGGAAGGCAG	-1.16
TTGCCCAGTATTGATGTGAGGGTAGGAGCC	0.702
TGAGTAATTACTATAAATGCTCTGGCCTTT	1.65
AGACAAATGCTTTTGAACACCTGTCCCTAG	-1.17
GTCCTGCCACATCCCCCACACCGAGATAGT	3.97
GTGAGGCAATGCCTCGCCCTGCTTCGGCTC	-1.18
CCTTATCTCGTTCTGATAGCAAGGAGAATT	0.627
AAAATCTTCAAACAACCCTTCGCTAGAGCA	-1.08
GGGTCACGAGACGGTGTCCCTGGCCAATCC	-1.04
CTTACTTGGCATCATCAAACAAGATTTATC	-0.732
AAGATAAAGGGACAGGGGTCATCAGGGGTC	2.66
CCTTAGCTTATCGTCCCTTCCCTCTGTCTT	1.61
ACTGTGATGGAACAGTGTAACACATGGCAT	1.07
AGCACAATCAAAGCAATGGCTACCAAGGAG	-1.11
TAGCCACAATAATGTGATAAGAATTTTGTG	0.563
CAGGGTCAGTGCAATCACGCCTCAAATGAG	-1.09
CAGTGCAAGGGACCTAGGTGAGCAGGCAGA	-1.1
GGGGAGAGGGGGTTAAAGGTTATTTGCTCA	4.32
CACCCTGCTCCAGCCAGAGGCCTTATCTGG	-1.11
GGCATTAATTCTTCTTTGAAAGTTTGGTGG	2.23

Sequence	binding signal (log2 normalized intensity)
AATGGAAAGAATATGAACTTTGGAAATGCA	1.99
ACTCAGTCCTTTCAGGACACCTTCAGGGCT	-1.19
GGGGAGGCAGGAGTGGGAGGCTGGGGCCTC	-1.03
TACACTACAGGCAAGAGAATCAGAGAGATA	-1.14
ACCATGCTCTAGTCTTCCTGTCTCCATTGC	1.39
ATCACCATCAGATCTGGGTGTGCCATTCTT	0.838
CAGGTTCATTCTTTAAGTGTGGGGTGACTG	1.83
AAGTGACCCTCAGACACACAGTCCACAGGC	-1.16
AACATGCTGCAGGCATTTCTGGAATTCTCT	-1.2
AAATCTCTCTGGTCAAAGGGTAAAGATTAT	2.51
CAAAGTCCAAAGCCTCATCTGAGATAAGGC	1.83
GTCACAGTATTCATTCCCCTAGTATATTGG	2.13
GCAGAGGTCAATGTCCACACCCCAGTTTCA	4.72
TTTGTTCATATCGGCTCCATCTAGCAGCCC	-0.983
ACCTTTTTTTCATGCAAATTTCCGTGTCGA	1.59
GGCAAATTGAAACCTTGCGCAAGTCCCAGA	-1.07
ACCTGCCAAAGAAGAAAACAATGACCTCTG	3.49
ACAAAATACAAGTCGTAAAGACCTTGCTGA	-0.977
CTGGAATGATACGCCGGCCAATCCGGCTGG	-1.08
GAGAGTAAGTTTCTGTCTCACCTGTAAATG	0.585
AGGATACCTAGTAGGCACAAAGGTGCAAAG	0.000482
AGCAGTTCACACTCCCACCAGCATGGTGAT	-1.04
AGAGAAAGGGTCAATGTGATCAGGTGTGGG	1.3
TTCTCAGGCATCTCTGGGGGTCAGAAGTCC	4.43

Sequence	binding signal (log2 normalized intensity)
AGTTACTTAAGCCATCTGCTGCCTCAGTTT	-1.1
AACATGGGCTTAAGACAAGAATGTGAGATA	0.211
CAAAGGTCACTTAGTCCCTAAGTCTTTCAA	2.79
TTCCTGGAAATCCCGAAATAGAGCCAAACA	-1.23
CCTAGCAAACAATGAGGACGTGTGTGTTCT	1.93
CTGCCTAACAGGAGTGTTTTTTTCACCTGG	0.67
AGCCCAGTCTTGGCCCCACCGGTCACGACC	1.27
AAGGTGCTACCACGAGAGTAGAGAGTTGTT	-0.729
TATAGGGGAGGTCCTAAAGAGGATATCCTG	-0.197
CTTTTCTGCTTTTGGAATTTGACCTCATTT	6.91
GTGTACTGAGCAGGGTCCAACCCACAGGGG	0.66
CACAGGTGACCTCTGGCCACTGCAGGGAGG	1.75
CAATCAGTGTGTTGACATTTGAACCCAACC	4.22
AGGACTTGCGGTGTTACACTTGTTTAAATG	1.74
GGGTCATCAGGGGTCCTGGCAGCACCTGAA	-0.921
ATTGCGGGCTGGTTGGCACGCTTAGGGAAC	-1
ATATTGACATTCCAGCCTCCAGCTACTCAC	-1.06
GCAGATGAAGTCCAAAGGCCATCTGCTGGA	2.95
GTTATCAACCTTATCAGCAGGACACCAAAC	-0.767
GCAGCGGGCAGCCCGTGTGGGCGGGTGCAG	-0.856
ACCATGAGAGGGTTAAAAACCAGAATGACA	-1.22
GGATTAAAGGATCAACTTTCAGAAGGGGAC	-1.06
TGCTATTAAGCACTAGAAAGTCTTGAAGTC	-0.734
TGGTGAGCAGGTTAATTATAATCGCAGAAT	-0.0715
